Experimental data reported in US11136409B2, “Compositions and methods for identification, assessment, prevention, and treatment of AML using USP10 biomarkers and modulators” (Dana-Farber Cancer Institute, Inc., priority 2016, dated 2021).

Test system: Ba/F3-FLT3-ITD-F691L cells
Details: approximately 2-day treatment

With CC1(COc2ccc3c(c2)ncn3-c2ccc3cccc(N4CCC(N)CC4)c3n2)COC1 [crenolanib] the “Potency against F691L mutant versus Ba/F3-FLT3-ITD” value was “rightward shift in the dose-response curve”.
